Assay results as given in PubChem BioAssay AID1030 (National Center for Advancing Translational Sciences (NCATS), 2008).
In all, about 220,000 compounds went through this assay and about 16,000 (7.3%) were called active. The shares of active, inactive and inconclusive entries below differ from those in the screen. Calls follow the shape of the dose curve; as a rule, active = well fitted inhibition curve with a large enough effect (not every such curve was filed as active); inconclusive = small, poorly fitted or top-dose-only effect, or another doubt; inactive = no such curve, though single readings can be large or run the other way. Potencies of inconclusive entries are left out as doubtful fits.

Each molecule was assayed against Aldehyde dehydrogenase 1A1 (Homo sapiens) (UniProt P00352) (assay: qHTS Assay for Inhibitors of Aldehyde Dehydrogenase 1 (ALDH1A1)). Conditions: Purified ALDH1A1, NADH fluorescence, propionaldehyde substrate; series mostly up to 75.3 µM.
UniProt P00352, sequence (P00352 whole entry, looked up): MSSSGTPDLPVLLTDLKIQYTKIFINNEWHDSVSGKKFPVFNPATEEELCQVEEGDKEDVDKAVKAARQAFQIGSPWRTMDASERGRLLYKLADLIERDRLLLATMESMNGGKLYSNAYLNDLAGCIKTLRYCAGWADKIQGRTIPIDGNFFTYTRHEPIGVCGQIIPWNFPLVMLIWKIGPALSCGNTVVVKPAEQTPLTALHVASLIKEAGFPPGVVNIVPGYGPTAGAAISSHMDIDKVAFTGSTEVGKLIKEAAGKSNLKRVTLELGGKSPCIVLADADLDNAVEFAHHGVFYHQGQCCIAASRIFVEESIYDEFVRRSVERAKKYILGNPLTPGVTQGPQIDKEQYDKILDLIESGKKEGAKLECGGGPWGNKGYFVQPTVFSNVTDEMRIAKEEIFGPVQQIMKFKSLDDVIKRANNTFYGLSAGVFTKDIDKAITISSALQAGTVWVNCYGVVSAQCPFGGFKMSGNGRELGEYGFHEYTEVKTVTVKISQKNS
Potency is read from the fitted curve at half-maximal effect; tags tell the direction and shape of the fitted curve.

Compound | Potency
CC(=O)Nc1ccc(C(=S)NCCCO)cc1 | inconclusive [inhibitor, single point]
CCOc1ccc(Br)cc1S(=O)(=O)Nc1cccc(S(=O)(=O)N(C)C)c1 | active: 20 µM
Cc1cccnc1NCc1ccc(O)c2ncccc12 | active: 20 µM
Cc1ccc(C)c(-n2c(Cc3cccs3)n[nH]c2=S)c1 | inconclusive [inhibitor, single point]
CC(C)CCNC(=O)c1cc(-c2ccco2)nc2ccccc12 | inconclusive [inhibitor, partial curve]
COc1ccc2[nH]cc(CCNc3cc(-c4cccnc4)ncn3)c2c1 | inconclusive [inhibitor, single point]
Brc1ccc2ncnc(NCc3ccco3)c2c1 | inconclusive [inhibitor, single point]
NNC(=O)[C@H](Cc1ccccc1)NC(=O)Nc1ccc2c(c1)OCCO2 | inactive
CN1CCN(c2ncc3nc(-c4cccc(C#N)c4)c(=O)n(Cc4ccc(F)cc4)c3n2)CC1 | inconclusive [inhibitor, full curve]
CC(=O)c1cccc(-n2nnnc2SCC(=O)Nc2cccc(NC(=O)c3ccco3)c2)c1 | inconclusive [inhibitor, single point]
S=C1NC(c2ccccc2)=CC(c2ccccc2)N1 (stereo not given) | active: 0.891 µM
Cc1ccc(N(CCCCN2C(=O)c3ccccc3C2=O)C(=O)c2cccc([N+](=O)[O-])c2)cc1 | inconclusive [inhibitor, partial curve]
CCOC(=O)c1c(NC(=O)Nc2cccc(Cl)c2)sc(C)c1C | inconclusive [inhibitor, single point]
Cc1cc(NC(=O)CN2CCOCC2)n(-c2nc3ccccc3s2)n1 | active: 22.4 µM
COc1ccc(-c2noc(COc3ccc4c(c3)OCO4)n2)cc1OC | inactive
COc1ccc(NC(=O)c2ccc(-c3ccccc3)cc2)cc1NS(=O)(=O)c1ccc(F)cc1 | inconclusive [inhibitor, partial curve]
COc1ccc2c(CC(=O)NC3CCCc4ccccc43)coc2c1 (stereo not given) | inconclusive [inhibitor, partial curve]
O=C(O)CCc1nc2cc(Cl)ccc2n(Cc2ccccc2)c1=O | inconclusive [inhibitor, single point]
O=C(CSc1nc2ccccc2c(=O)n1Cc1ccco1)c1ccccc1 | inconclusive [inhibitor, full curve]
CCOC(=O)N1CCN(C(=O)CSc2ccc(Cl)cc2)CC1 | inactive
Cc1cccc(/C=C2\CS/C(=C\c3cccc(C)c3)C2=O)c1 | inactive
O=C(NCCc1ccccc1)c1cc(S(=O)(=O)N2CCOCC2)ccc1F | inconclusive [inhibitor, single point]
Cc1ccc2nc(N3C(=O)C(O)=C(C(=O)c4ccco4)C3c3cccs3)sc2c1 (stereo not given) | inconclusive [inhibitor, single point]

Compound | Potency
CCOc1ccc(N2C(=O)CC(N(Cc3ccco3)C(=O)CC)C2=O)cc1 (stereo not given) | inconclusive [inhibitor, single point]
O=C(Nc1ccc(-c2cn3ccccc3n2)cc1)c1cccs1 | inconclusive [inhibitor, single point]
COc1cccc2c(=O)c(C(=O)NCc3cccs3)c[nH]c12 | inconclusive [inhibitor, partial curve]
CC1CC/C(=C\c2ccc3c(c2)OCO3)C(=O)/C1=C/c1ccc2c(c1)OCO2 (stereo not given) | inconclusive [inhibitor, partial curve]
O=C(CSc1nccn1-c1ccc(F)cc1)Nc1ccc2c(c1)OCO2 | inconclusive [inhibitor, full curve]
COc1cc(OC)c(OC)cc1CN1CCN(Cc2cccn2C)CC1 | inconclusive [inhibitor, single point]
COc1ccc(COCC(O)CN(Cc2ccccc2)C(C)C)cc1OC (stereo not given) | inconclusive [inhibitor, single point]
O=c1c2ccccc2nc(SCCN2CCOCC2)n1CCc1ccccc1 | inconclusive [inhibitor, single point]
O=C1CCCN1CCC1CCN(C2CC(=O)N(Cc3ccc(N4CCCC4=O)cc3)C2=O)CC1 (stereo not given) | inconclusive [inhibitor, single point]
NS(=O)(=O)c1ccc(Cl)c(C(=O)Nc2ccccc2[N+](=O)[O-])c1 | inconclusive [inhibitor, partial curve]
CC(=O)c1cccc(NC(=O)C2CC(=O)N(c3cccc(C)c3C)C2)c1 (stereo not given) | active: 5.01 µM
NC(=O)c1ccsc1NC(=O)COC(=O)CCOc1ccccc1 | inactive
O=C(Cn1c(C(=O)NCc2ccco2)cc2sccc21)c1ccccc1 | inconclusive [inhibitor, partial curve]
C=CCN1C(=O)/C(=C/c2ccc(OCC(=O)O)cc2)S/C1=N/c1nccs1 | active: 5.01 µM
CS(=O)(=O)N(CC(=O)NCc1ccncc1)c1cc(Cl)cc(Cl)c1 | inactive
C=CCn1c(SCC(=O)OC)nc2sc3c(c2c1=O)CCN(C)C3 | inconclusive [inhibitor, single point]
Nc1ccc(-c2nc3ccc(-c4nc5ccccc5o4)cc3[nH]2)cc1 | inconclusive [inhibitor, partial curve]
O=C(O)c1ccccc1C(c1ccc(O)cc1)c1ccc(O)cc1 | active: 28.2 µM
O=C(COC(=O)c1ccc(Br)o1)Nc1nc2c(F)c(F)c(F)cc2s1 | active: 22.4 µM
CCOc1ccccc1NC(=O)C1=C(C)NC(=S)NC1c1cccs1 (stereo not given) | active: 0.631 µM
C/C(=N\NC(=O)COc1ccc(C#N)cc1)c1ccc(N2CCOCC2)cc1 | inconclusive [inhibitor, single point]
c1ccc(-c2noc(-c3cccc4ccccc34)n2)cc1 | inconclusive [inhibitor, single point]
